The campaign covered roughly 52,000 compounds. About 4,300 (8.3%) were called active. No stated cut-off is given here; in the data, active means survival mostly below about 52% (no sharp cut-off); inactive means mostly above about 56%. Some of the results follow.
system: DeltatarO mutant; assay: S. aureus survival, RN4220 and DeltatarO strains – OD600, teichoic acid synthesis inhibitors, primary screen (AID 463173); details: S. aureus RN4220 wild type/DeltatarO growth, OD600, 18 h, hits give low values, screened at 18.75 µg/mL (by protocol)

| SMILES | survival |
| --- | --- |
| CCOc1ccc2[nH]c(=S)c(C#N)cc2c1 | inactive: 100% |
| Cc1cccc(-c2nc3cc(NC(=O)c4ccc(OCC(C)C)cc4)ccc3o2)c1 | inactive: 113% |
| CCOC(=O)N1CCC(NC(=O)c2cnn(-c3ccc(C)cc3)c2-n2cccc2)CC1 | inactive: 69% |
| COc1ccc(NC(=O)c2cnc(N3CCOCC3)c3ccccc23)cc1OC | inactive: 73% |
| COc1cccc(CCNC(=O)c2ccc(Cn3c(SCc4ccccc4)nc4cccnc43)cc2)c1 | inactive: 55% |
| O=C(Nc1ccc2nc(SCCOc3ccccc3)sc2c1)c1ccco1 | inactive: 99% |
| Cc1cccn2c(=O)c3cc(C(=O)NC(C)C)n(C)c3nc12 | active: 53% |
| O=C(CCCCCn1c(=O)[nH]c2ccccc2c1=O)NCCc1ccccc1 | inactive: 93% |
| COc1ccc(Cl)cc1NC(=O)CN(c1cccc(C)c1C)S(C)(=O)=O | inactive: 87% |
| Cc1cccc(S(=O)(=O)c2cn(Cc3ccc(F)cc3)c3cc(N4CCCCC4)c(F)cc3c2=O)c1 | active: -2% |
| COc1ccc(CCNC(=O)Cn2c(=O)c3sccc3n(CC(=O)Nc3cccc(C(F)(F)F)c3)c2=O)cc1OC | inactive: 82% |
| O=C(NCc1cccc(Cl)c1)c1cnc(N2CCCCC2)c2ccccc12 | inactive: 83% |
| Cc1ccc(-n2ncc(C(=O)NCCc3ccsc3)c2C2CCN(C(=O)OC(C)(C)C)CC2)c(C)c1 | inactive: 69% |
| COC(=O)c1cccc(Nc2c(-c3ccc(SC)cc3)nc3nc[nH]n23)c1 | inactive: 115% |
| CCc1ccc(C2N=C(N)Nc3nc4ccccc4n32)cc1 (stereo not given) | inactive: 137% |
| Cc1cccc(N2CCN(c3ncnc4onc(C)c34)CC2)c1C | inactive: 82% |
| COc1ccc(Cl)cc1NC(=O)C(OC)c1ccccc1 (stereo not given) | inactive: 83% |
| O=c1c(Cl)c(NCc2ccco2)cnn1Cc1ccccc1 | inactive: 99% |
| COc1ccc(C(=O)Cn2nnc(-c3ccccc3)n2)cc1 | inactive: 73% |
| CC1=C(C(=O)Nc2cc(Cl)ccc2C)C(c2ccccc2F)n2ncnc2N1 (stereo not given) | inactive: 75% |
| CN1CCN(C(CNC(=O)C(=O)Nc2ccccc2C#N)c2ccc3c(c2)OCO3)CC1 (stereo not given) | inactive: 73% |
| CCc1ccccc1NC(=O)c1cc(-c2ccc(OC)cc2)on1 | inactive: 62% |
| COc1ccc(CCNC(=O)CSc2cc(=O)n(C)c3ccccc23)cc1OC | inactive: 95% |
| CCn1c(=O)c(=O)n(CC)c2cc(N3CCCCC3)c(NC(=O)c3ccc(OC)c(OC)c3)cc21 | inactive: 88% |
| COc1cc(C(=O)Nc2sc3c(c2C(N)=O)CCC(C)C3)cc(OC)c1OC (stereo not given) | inactive: 53% |

From PubChem BioAssay AID463173 (ICCB-Longwood Screening Facility, Harvard Medical School, 2010)
